Read counts are not given, so values of variants with three or more changes are uncertain.
B1: LINE1-mini (parent)
chain: GGCAGAGCUCAACACAGCGUGGCAAAGUGGCUGUGGCUAGACUGCC

Variants of: B1
Experiment: self-cleavage, relative activity (ratio to wild type); higher = more cleavage; in vitro, sequencing; the parent is a self-cleaving ribozyme

Variant | self-cleavage
G7U A24G A39C | 0.19
G7U A24G G35C | 0.05
G7U A25C G27U | 0.02
G7U A26G U32A | 0.17
G7U A26U U28A | 0.04
G7U C8A A16G C23G | 0.13
G7U C8A A26G G44U | 0.14
G7U C8A A41C | 0.05
G7U C8A C10U G36U | 0.03
G7U C8A C15U | 0.71
G7U C8A C37U C45A | 0.35
G7U C8A G19C G40A | 0.06
G7U C8A U34C | 0.11
G7U C8G A16C C46U | 0.04
G7U C8G A16G C42U U43C C46U | 0.03
G7U C8G A26C | 0.19
G7U C8G C10A G21A A24C | 0.01
G7U C8G C13U C18A C23U C37U | 0.16
G7U C8G C15G A16G U34C | 0.01
G7U C8G C15U G17U G22U C23U G30C C45U | 0.02
G7U C8G G21C U28G U43C | 0.03
G7U C8U A11C C15A A39U | 0.04
G7U C8U A16U G40A | 0.14
G7U C8U C31G | 0.11

Variant | self-cleavage
G7U C8U G21C C45A | 0.19
G7U C8U U9A C46A | 0.15
G7U C8U U9G A41U C42A C46U | 0.11
G7U C8U U34G | 0.29
G7U C10A A12G U38G G40U | 0.01
G7U C10A A14U U28G U32A | 0.03
G7U C10A A16U A24U G44A C45G | 0.02
G7U C10A C13A C23A A39G C42G | 0.01
G7U C10A C13A C31U | 0.02
G7U C10A C18U G30C | 0.01
G7U C10A U28G | 0.01
G7U C10G A14C G44U C46A | 0.07
G7U C10G A41G C45U | 0.01
G7U C10G C15U G17A C18A C31U U34A | 0.01
G7U C10G G22C A26C A39U C42G | 0
G7U C10G G35A | 0.03
G7U C10U A39G | 0.02
G7U C10U C13G U43A | 0.04
G7U C10U G17U C18G U20C A24G G29A C37A | 0.05
G7U C10U U43A G44C | 0.09
G7U C13A A14U C15U G35C A39U | 0.02
G7U C13A A25G G27A U28G C37A U38C | 0.01
G7U C13A A41G | 0.05
G7U C13A C31A G44A | 0.12

Variant | self-cleavage
G7U C13A G27C U38C G40U | 0.21
G7U C13A G30A A39G G44A | 0.06
G7U C13A U20G G21U U28A | 0.07
G7U C13G A24C G40A | 0.07
G7U C13G C46U | 0.06
G7U C13G G22U | 0.07
G7U C13G G40C | 0.02
G7U C13G U28C U32C A39G | 0.16
G7U C13U C18G U43G | 0.09
G7U C13U C23U G33A | 0.19
G7U C13U C46A | 0.17
G7U C13U G21U | 0.15
G7U C13U G35U C37U | 0.06
G7U C15A G29U A39U A41G | 0.16
G7U C15G C42U | 0.04
G7U C15G C46A | 0.16
G7U C15G G33A | 0.02
G7U C15U G22A | 0.1
G7U C18A C31A | 0.07
G7U C18G A26U | 0.05
G7U C18G C23G G30C | 0.03
G7U C18G G21A C23A | 0.04
G7U C18G G29A | 0.03
G7U C18G G30U C42U C46U | 0.03

Variant | self-cleavage
G7U C18G U20C | 0.13
G7U C18G U38C | 0.07
G7U C18U C23G A25C | 0.03
G7U C18U U20G | 0.02
G7U C18U U32G G40A | 0.13
G7U C23A G30A | 0.2
G7U C23A U28C C37G | 0.03
G7U C23G A25C | 0.06
G7U C23U G27C | 0.03
G7U C23U G35A | 0.04
G7U C23U U28A G36U C46G | 0.01
G7U C23U U34A C46A | 0.03
G7U C23U U34C G36C | 0.03
G7U C31A C45A | 0.16
G7U C31A G36A G40C | 0.04
G7U C31G A41U | 0.09
G7U C31G U38C G40C | 0.1
G7U C37A A39U C45A | 0.04
G7U C37G C45G | 0.03
G7U C37G C46G | 0.02
G7U G17A C37U A41C | 0.1
G7U G17A G33C | 0.07
G7U G17A G36A | 0.04
G7U G17C G21C | 0.34

Variant | self-cleavage
G7U G17U C37G C46G | 0.02
G7U G17U U34C G40C | 0.07
G7U G19A G21C | 0.04
G7U G19A G29A G36C | 0.09
G7U G19A U20A G22A C37G G40A C45G | 0.03
G7U G19U G21A | 0.01
G7U G21A C31U | 0.09
G7U G21A G40U | 0.12
G7U G21U A24C | 0.04
G7U G21U A41U | 0.09
G7U G21U C37G | 0.02
G7U G21U G30U G33C G36C | 0.12
G7U G21U U43C | 0.02
G7U G22A C23A G29U G36A G40A C45U | 0.08
G7U G22A G33U C37U C42U G44U | 0
G7U G22C A26U | 0.06
G7U G22C G29U A41U C42U G44A | 0.21
G7U G22C G44A | 0.03
G7U G22C U32G G33A G40C | 0.07
G7U G22U A24U U34G | 0.05
G7U G22U C45A | 0.17
G7U G22U G27C G40C C42U | 0.31
G7U G27C A39U | 0.07
G7U G27C G44A | 0.14

Variant | self-cleavage
G7U G27U U28C U32A U38C | 0.03
G7U G29A U38G | 0.02
G7U G29U C42A | 0.08
G7U G29U G40A U43C | 0.04
G7U G30C G40A | 0.18
G7U G30U U38G | 0
G7U G33C C37A | 0.01
G7U G33U G40U | 0.06
G7U G36C C42A | 0.12
G7U G36U C42U U43A C45A | 0.01
G7U G40U C42G | 0.02
G7U G44U C46U | 0.21
G7U U9A A14G G21C | 0.01
G7U U9A A26C | 0.04
G7U U9A C18A G21C A24U G36A | 0.01
G7U U9A G44A | 0.24
G7U U9C C15A G44A | 0.01
G7U U9C G17A C18U G33U | 0.04
G7U U9C G33U | 0.07
G7U U9G C10G C13U U32A | 0.02
G7U U9G C13G C18A A41C | 0.24
G7U U9G G17U C18A | 0.04
G7U U9G G30A | 0.25
G7U U20A G27A | 0.01

Variant | self-cleavage
G7U U20A G27U G36U | 0.03
G7U U20C G21U C42U | 0.04
G7U U20G C23A | 0.01
G7U U20G C45A | 0.04
G7U U32A A39C | 0.03
G7U U32G U34G G35U U43A C45G C46A | 0.04
G7U U34C G35A | 0.09
G7U U34C G44A C45G | 0.03
G7U U34G G35U | 0.06
G7U U38A A41C C42A | 0.03
G7U U38C G44C | 0.07
G7U U38G C46A | 0
C8A A11C C13A A26U | 0.06
C8A A11C C13U G29C G35U A39G | 0
C8A A11C G17A G27C U32G A39G | 0
C8A A11C G19U | 0.03
C8A A11C G21A G22U U38G A41U C45U | 0
C8A A11C G29C G36C A39C | 0.02
C8A A11G C13A G30U G40A | 0.03
C8A A11G G17C G19C G35C G40C | 0.02
C8A A11U A12G C18A G21C A25U G30U | 0.01
C8A A11U C37A | 0.11
C8A A11U G17A | 0.03
